The results in this text go back to patent publication US20200308274A1.

Test [1] addresses liraglutide fibrils (human) (UniProt P01275). The test is described as follows: ELISA Assay (IV); 0.1 uM fibrils in 1600 uM soluble liraglutide; 5 nM antibody; A450 ratio to soluble-only wells. In general terms: In an ELISA, binding on a coated surface is turned into a signal by an enzyme label.
Test [2] shares this target. The test is described as follows: ELISA Assay (III-B); row labelled 0.1 uM; two-step purified antibody; A450 ratio, mean of 3.
In test [3] the target is soluble liraglutide (human) (UniProt P01275). In words: ELISA Assay (III-B); row labelled 0.03 uM; two-step purified antibody; raw signal, mean of 3.
Test [4] concerns the target liraglutide fibrils (human) (UniProt P01275). The description is as above.
Test [5] has the same target. The test is described as follows: ELISA Assay (III-B); row labelled 30 uM; two-step purified antibody; A450 ratio, mean of 3.
Test [6] concerns the target soluble liraglutide (human) (UniProt P01275). In words: ELISA Assay (III-B); row labelled 10 uM; two-step purified antibody; raw signal, mean of 3.
Test [7] deals with liraglutide fibrils (human) (UniProt P01275). The test is described as above.
Test [8] shares this target. In words: ELISA Assay (III-B); row labelled 0.01 uM; two-step purified antibody; A450 ratio, mean of 3.
Test [9] shares this target. The test is described as follows: ELISA Assay (III-B); row labelled 1 uM; two-step purified antibody; A450 ratio, mean of 3.
Test [10] shares this target. The test is described as follows: ELISA Assay (III-B); row labelled 100 uM; two-step purified antibody; A450 ratio, mean of 3.
The target of test [11] is soluble liraglutide (human) (UniProt P01275). In words: ELISA Assay (III-B); row labelled 0.30 uM; two-step purified antibody; raw signal, mean of 3.
Test [12] concerns the target liraglutide fibrils (human) (UniProt P01275). The test is described as above.
Test [13] addresses soluble liraglutide (human) (UniProt P01275). The test is described as follows: ELISA Assay (III-B); row labelled 30 uM; two-step purified antibody; raw signal, mean of 3.
In test [14] the target is liraglutide fibrils (human) (UniProt P01275). The description is as above.
The target is the same in test [15]. In words: ELISA Assay (III-B); row labelled 10 uM; two-step purified antibody; A450 ratio, mean of 3.
The target of test [16] is soluble liraglutide (human) (UniProt P01275). In words: ELISA Assay (III-B); row labelled 3 uM; two-step purified antibody; raw signal, mean of 3.
In test [17] the target is liraglutide fibrils (human) (UniProt P01275). The test is described as above.
For test [18] the target is unchanged. In words: ELISA Assay (III-B); row labelled 300 uM; two-step purified antibody; A450 ratio, mean of 3.
In test [19] the target is soluble liraglutide (human) (UniProt P01275). In words: ELISA Assay (III-B); row labelled 0.10 uM; two-step purified antibody; raw signal, mean of 3.
Test [20] deals with liraglutide fibrils (human) (UniProt P01275). Described as above.
For test [21] the target is unchanged. In words: ELISA Assay (III-B); row labelled 3 uM; two-step purified antibody; A450 ratio, mean of 3.
The target is the same in test [22]. In words: ELISA Assay (III-B); row labelled 0.03 uM; two-step purified antibody; A450 ratio, mean of 3.
The target of test [23] is soluble liraglutide (human) (UniProt P01275). The test is described as follows: ELISA Assay (III-B); row labelled 1 uM; two-step purified antibody; raw signal, mean of 3.
Test [24] has as its target liraglutide fibrils (human) (UniProt P01275). Described as above.
Test [25] concerns the target soluble liraglutide (human) (UniProt P01275). In words: ELISA Assay (III-B); row labelled 100 uM; two-step purified antibody; raw signal, mean of 3.
In test [26] the target is liraglutide fibrils (human) (UniProt P01275). The test is described as above.
The target of test [27] is soluble liraglutide (human) (UniProt P01275). The test is described as follows: ELISA Assay (III-B); row labelled 0.01 uM; two-step purified antibody; raw signal, mean of 3.
Test [28] addresses liraglutide fibrils (human) (UniProt P01275). The test is described as above.
The target in test [29] is soluble liraglutide (human) (UniProt P01275). In words: ELISA Assay (III-B); row labelled 300 uM; two-step purified antibody; raw signal, mean of 3.
Test [30] deals with liraglutide fibrils (human) (UniProt P01275). Described as above.
The target is the same in test [31]. The test is described as follows: ELISA Assay (III-B); row labelled 0.3 uM; two-step purified antibody; A450 ratio, mean of 3.

B1: Antibody A (Fc fusion)
scFv: DIQMTQSPSSLSASVGDRVTITCRASQGVSDAVSWYQQKPGKAPKLLIYSASFLYSGVPSRFSGSRSGTDFTLTISSLQPEDFATYYCQQHDTTPPTFGQGTKVEIKRTSPNSASHSGSAPQTSSAPGSQEVQLVESGGGLVQPGGSLRLSCAASGFNIKDTYIHWVRQAPGKGLEWVARISPTGGYTRYAASVKGRFTISADTSKNTAYLQMNSLRAEDTAVYYCARDWFDAASFAWFDFYDYSDYWGQGTLVTVSSAAA[human IgG1 Fc not written out]GSHHHHHHKLDYKDHDGDYKDHDIDYKDDDDK
Regarding B1, the Antibody Specificity Ratio (Liraglutide fibril in mixture/Soluble liraglutide) in [1] was 8.44.

B2: Antibody D (Fc fusion)
scFv: DIQMTQSPSSLSASVGDRVTITCRASQIVSNAVTWYQQKPGKAPKLLIYSASFLYSGVPSRFSGSRSGTDFTLTISSLQPEDFATYYCQQHCTTPPTFGQGTKVEIKRTSPNSASHSGSAPQTSSAPGSQEVQLVESGGGLVQPGGSLRLSCAASGFNIKDTYIHWVRQAPGKGLEWVARIYPDGGNTRYAGSVKGRFTISADTSKNTAYLQMNSLRAEDTAVYYCVRDWFDAASFAWFDFYDYSDYWGQGTLVTVSSAAA[human IgG1 Fc not written out]GSHHHHHHKLDYKDHDGDYKDHDIDYKDDDDK
With B2, the Antibody Specificity Ratio (Liraglutide fibril in mixture/Soluble liraglutide) in [1] came out at 30.7.

B3: Antibody B (Fc fusion)
scFv: DIQMTQSPSSLSASVGDRVTITCRASQDVDSAVNWYQQKPGKAPKLLIYSASFLYSGVPSRFSGSRSGTDFTLTISSLQPEDFATYYCQQHCTYPPTFGQGTKVEIKRTSPNSASHSGSAPQTSSAPGSQEVQLVESGGGLVQPGGSLRLSCAASGFNIKDTYIHWVRQAPGKGLEWVARISPYDGNTRYAASVKGRFTISADTSKNTAYLQMNSLRAEDTAVYYCARDWFDAASFAWFDFYDYSDYWGQGTLVTVSSAAA[human IgG1 Fc not written out]GSHHHHHHKLDYKDHDGDYKDHDIDYKDDDDK
Consider B3, for which, in [1], the Antibody Specificity Ratio (Liraglutide fibril in mixture/Soluble liraglutide) was 21.5.

B4: Antibody C (Fc fusion)
scFv: DIQMTQSPSSLSASVGDRVTITCRASQDVSTAVTWYQQKPGKAPKLLIYSASFLYSGVPSRFSGSRSGTDFTLTISSLQPEDFATYYCQQHSTYPPTFGQGTKVEIKRTSPNSASHSGSAPQTSSAPGSQEVQLVESGGGLVQPGGSLRLSCAASGFNIKDTYIHWVRQAPGKGLEWVARISPAGGTTRYAASVKGRFTISADTSKNTAYLQMNSLRAEDTAVYYCARDWFDAASFAWFDFYDYSDYWGQGTLVTVSSAAA[human IgG1 Fc not written out]GSHHHHHHKLDYKDHDGDYKDHDIDYKDDDDK
On to B4, for which the Antibody Specificity Ratio (Liraglutide fibril in mixture/Soluble liraglutide) in [1] was determined as 24.3.

B5: Antibody N (Fc fusion)
scFv: DIQMTQSPSSLSASVGDRVTITCRASQSVDYAVSWYQQKPGKAPKLLIYSASFLYSGVPSRFSGSRSGTDFTLTISSLQPEDFATYYCQQHNTTPPTFGQGTKVEIKRTSPNSASHSGSAPQTSSAPGSQEVQLVESGGGLVQPGGSLRLSCAASGFNIKDTYIHWVRQAPGKGLEWVARIAPDNGTTRYAVSVKGRFTISADTSKNTAYLQMNSLRAEDTAVYYCAREWYEASYYDWFDYFDFSDYWGQGTLVTVSSAAA[human IgG1 Fc not written out]GSHHHHHHKLDYKDHDGDYKDHDIDYKDDDDK
Consider B5, for which the Liraglutide fibril specificity (Liraglutide fibril/Liraglutide monomer) in test [2] worked out at 1.31; in [5], 5.57; in test [8], 1.41; in [9], 1.62; in test [10], 10; in test [15], 3.01. In addition, the Liraglutide fibril specificity (Liraglutide fibril/Liraglutide monomer) in [18] came to 21.1; in test [21] it was 1.86; in [22], 1.32; in test [31], 1.47. Also, the antibody binding signal (absorbance at 450 nm) in [3] amounted to 0.05; in test [4] it was 0.06; in test [6], 0.05; in [7] it was 0.15; in test [11] it was 0.05; in [12], 0.07. The antibody binding signal (absorbance at 450 nm) in [13] amounted to 0.05; in test [14], 0.29; in test [16], 0.05; in [17] it was 0.09; in test [19] it was 0.05; in [20], 0.06. Also, the antibody binding signal (absorbance at 450 nm) stood at 0.05 in test [23]; 0.08 in test [24]; 0.06 in test [25]; 0.63 in [26]; 0.05 in test [27]; 0.06 in [28]. Moreover, the results for the antibody binding signal (absorbance at 450 nm) in test [29] and in test [30] were 0.09 and 1.87, respectively.

B6: Antibody G (Fc fusion)
scFv: DIQMTQSPSSLSASVGDRVTITCRASQGVTAAVAWYQQKPGKAPKLLIYSASFLYSGVPSRFSGSRSGTDFTLTISSLQPEDFATYYCQQHNTYPPTFGQGTKVEIKRTSPNSASHSGSAPQTSSAPGSQEVQLVESGGGLVQPGGSLRLSCAASGFNIKDTYIHWVRQAPGKGLEWVARIAPTSGYTRYAVSVKGRFTISADTSKNTAYLQMNSLRAEDTAVYYCAREWYEASYYDWFDYFDFSDYWGQGTLVTVSSAAA[human IgG1 Fc not written out]GSHHHHHHKLDYKDHDGDYKDHDIDYKDDDDK
Consider B6, for which, in test [1], the Antibody Specificity Ratio (Liraglutide fibril in mixture/Soluble liraglutide) was 35.8.

B7: Antibody F (Fc fusion)
scFv: DIQMTQSPSSLSASVGDRVTITCRASQIVNYAVYWYQQKPGKAPKLLIYSASFLYSGVPSRFSGSRSGTDFTLTISSLQPEDFVTYYCQQHYTTPPTFGQGTKVEIKRTSPNSASHSGSAPQTSSAPGSQEVQLVESGGGLVQPGGSLRLSCAASGFNIKDTYIHWVRQAPGKGLEWVARIAPTNGTTRYADSVKGRFTISADTSKNTAYLQMNSLRAEDTAVYYCAREWYEASYYDWFDYFDFSDYWGQGTLVTVSSAAA[human IgG1 Fc not written out]GSHHHHHHKLDYKDHDGDYKDHDIDYKDDDDK
As for B7, the Antibody Specificity Ratio (Liraglutide fibril in mixture/Soluble liraglutide) in test [1] came to 40.4.
